The record followed here is PMC9520037 (The Journal of Biological Chemistry, 2022).

In the test the target is T1, MAP2c-1-467 with N-terminal histidine tag (H6-MAP2c) (rat, UniProt P15146-3 1-467, RED-tris-NTA fluorescent label on the histidine tag).
T1 sequence: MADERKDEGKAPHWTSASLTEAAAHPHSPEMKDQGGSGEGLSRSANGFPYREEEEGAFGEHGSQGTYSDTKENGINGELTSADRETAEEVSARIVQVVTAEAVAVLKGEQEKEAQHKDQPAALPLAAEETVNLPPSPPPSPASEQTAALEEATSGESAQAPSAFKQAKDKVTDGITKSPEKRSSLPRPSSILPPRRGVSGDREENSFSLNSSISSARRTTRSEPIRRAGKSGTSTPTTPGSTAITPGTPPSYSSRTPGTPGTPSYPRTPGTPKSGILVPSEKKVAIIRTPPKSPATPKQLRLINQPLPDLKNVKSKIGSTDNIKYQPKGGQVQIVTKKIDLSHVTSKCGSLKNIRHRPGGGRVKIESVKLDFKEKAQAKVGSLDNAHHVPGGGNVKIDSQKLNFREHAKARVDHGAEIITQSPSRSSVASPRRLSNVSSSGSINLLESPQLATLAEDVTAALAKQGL
Briefly: MST.

B1: SH3 domain of human Abl fused to GST (GST-Abl-SH3) (domain or fragment)
chain: not shown
By Kd is commonly meant the equilibrium constant for the complex coming apart. With B1, the affinity, expressed as Kd, was 68 ± 10 µM.
